Data: the supplement of paper PMC5919970
Structures can show the parent of a compound that is named as a salt. In all, about 2,000 compounds were measured (“fractional viability relative to vehicle”: median about 0.91, lowest 2% from about 0.045 on). This is one part of the list.

Tested on: TYKNU
Assay: fractional viability relative to vehicle; TYKNU is a high-grade serous ovarian cancer line; higher = less growth inhibition
Conditions: 72 h
How it was run: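 TYKNU control cells or lentiCRISPRv2 knockout derivatives were plated at 500 cells per well in duplicate into drug-stamped 384-well plates holding a ~2100-compound library at 2 or 10 μM. Culture was in RPMI 1640 with 10% FBS at 37 °C in 5% CO2, with 72 h of drug treatment. Viability was measured by Cell Titer Glo luminescence, and the averaged duplicate treatment wells were normalised to duplicate control wells at the same plate position.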

[1] = 2uM, genotype: DNM1L knockout (sgDNM1L #1)
[2] = 2uM, genotype: sgCTRLA1 (non-targeting control)
[3] = 10uM, genotype: DNM1L knockout (sgDNM1L #1)
[4] = 10uM, genotype: sgCTRLA1 (non-targeting control)

| SMILES | fractional viability [1] | fractional viability [2] | fractional viability [3] | fractional viability [4] |
| --- | --- | --- | --- | --- |
| Clc1ccc(C(c2ccccc2Cl)C(Cl)Cl)cc1 (stereo not given) [Mitotane] | 0.981 | 1.09 | 1.01 | 0.994 |
| N#CC[C@H](C1CCCC1)n1cc(-c2ncnc3[nH]ccc23)cn1 | 1.03 | 1.08 | 0.952 | 0.952 |
| CN(C[C@@H]1COCCO1)S(=O)(=O)Nc1ccc2ccc3ncc(-c4cnn(C)c4)cc3c(=O)c2c1 | 1.13 | 1.02 | 0.423 | 0.512 |
| CCCc1nn(C)c2c(=O)[nH]c(-c3cc(S(=O)(=O)N4CCN(C)CC4)ccc3OCC)nc12 [Sildenafil Citrate] | 1.02 | 1.12 | 0.866 | 0.969 |
| CCC(C)(C)C(=O)O[C@H]1C[C@@H](C)C=C2C=C[C@H](C)[C@H](CC[C@@H]3C[C@@H](O)CC(=O)O3)[C@H]21 [Simvastatin] | 0.547 | 0.562 | 0.272 | 0.259 |
| O=C(CSc1nc2c(c(=O)n1-c1ccccc1)SCC2)Nc1ccc(-c2ccccc2)cn1 | 0.803 | 0.967 | 0.732 | 0.921 |
| CCOC(=O)CC(=O)N1CCSC1COc1ccccc1OC (stereo not given) [Moguisteine] | 1.11 | 1.23 | 0.845 | 1.1 |
| CC(=O)Oc1ccc(C(c2ccc(OC(C)=O)cc2)c2ccccn2)cc1 [Bisacodyl] | 1 | 1.23 | 0.82 | 1.12 |
| CC(C)c1cnn2c(NCc3ccccc3)cc(NCCCCCCN)nc12 | 1.09 | 1.13 | 0.83 | 0.972 |
| O=S(=O)(c1cccc2cnccc12)N1CCCNCC1 [Fasudil (HA-1077) HCl] | 0.99 | 1.13 | 0.753 | 0.991 |
| COc1cc2nc(N3CCCN(C)CC3)nc(NC3CCN(Cc4ccccc4)CC3)c2cc1OC | 0.474 | 0.548 | 0.0331 | 0.0181 |
| O=C(c1ccc(F)c(F)c1Nc1ccc(I)cc1F)N1CC(O)([C@@H]2CCCCN2)C1 [Cobimetinib (GDC-0973, RG7420)] | 0.814 | 1.03 | 0.942 | 0.846 |
| Cc1c(C(=O)N2CCOc3ccc(-c4ccc(N)nc4)cc3C2)ccc(S(C)(=O)=O)c1F | 0.663 | 0.781 | 0.338 | 0.389 |
| CC(C)(O)CC(=O)NCCn1ccc2ncnc(Nc3ccc(Oc4cccc(C(F)(F)F)c4)c(Cl)c3)c21 | 0.978 | 1.01 | 0.443 | 0.857 |
| C[C@H](Nc1ncnc2nc[nH]c12)c1cc2cccc(Cl)c2c(=O)n1-c1ccccc1 | 0.77 | 0.863 | 0.628 | 0.78 |
| CC(NCCc1ccc(O)cc1)C(O)c1ccc(O)cc1 (stereo not given) [Ritodrine HCl] | 0.814 | 0.85 | 0.709 | 0.844 |
| Fc1ccc(CNc2ncnc3ccc(F)cc23)cc1 [Spautin-1] | 0.675 | 0.763 | 0.67 | 0.447 |
| CCS(=O)(=O)N1CCC([C@@H](C)n2c(C)c(C(=O)NCc3c(OC)cc(C)[nH]c3=O)c3ccccc32)CC1 | 0.746 | 0.93 | 0.908 | 0.836 |
| O=S(=O)(N=Cc1c(O)ccc2ccccc12)c1cccs1 | 0.71 | 0.953 | 0.696 | 0.77 |
| Cc1c(OCC(F)(F)F)ccnc1C[S+]([O-])c1nc2ccccc2[nH]1 (stereo not given) [Lansoprazole] | 1 | 1.02 | 1.01 | 0.939 |

| SMILES | fractional viability [1] | fractional viability [2] | fractional viability [3] | fractional viability [4] |
| --- | --- | --- | --- | --- |
| O=C1CCc2c(ccc3ccccc23)O1 [Splitomicin] | 0.823 | 0.967 | 0.757 | 0.792 |
| CC[C@@H]1C(=O)N(C)c2cnc(Nc3ccc(C(=O)NC4CCN(C)CC4)cc3OC)nc2N1C1CCCC1 | 0.505 | 0.481 | 0.092 | 0.116 |
| COc1ccc2cc1Oc1ccc(cc1)C[C@H]1c3c(cc4c(c3Oc3cc5c(cc3OC)CCN(C)[C@@H]5C2)OCO4)CCN1C [Cepharanthine] | 0.788 | 0.904 | 0.105 | 0.0947 |
| NC1=N[C@@]2(c3cc(NC(=O)c4ccc(F)cn4)ccc3F)COC[C@H]2CS1 | 1.19 | 1 | 1.11 | 0.986 |
| OCC(O)CN1CCN(c2ccccc2)CC1 (stereo not given) [Dropropizine] | 0.973 | 1.07 | 0.996 | 1.17 |
| COc1ccccc1N1CCN(CCN2C(=O)CC3(CCCC3)CC2=O)CC1 | 0.889 | 1.11 | 0.882 | 1.05 |
| CN(C)CCC(c1ccc(Cl)cc1)c1ccccn1 (stereo not given) [Chlorpheniramine Maleate] | 0.949 | 0.963 | 0.945 | 0.918 |
| CCC(=O)NCC[C@@H]1CCc2ccc3c(c21)CCO3 [Ramelteon] | 1.04 | 1.09 | 0.92 | 1.12 |
| COC1=CC(=O)C[C@@H](C)[C@]12Oc1c(Cl)c(OC)cc(OC)c1C2=O [Griseofulvin] | 1.2 | 1.25 | 0.442 | 0.647 |
| CC(C)(C)c1cc(/C=C(\C#N)C(N)=S)cc(C(C)(C)C)c1O [Tyrphostin AG 879] | 1 | 1.01 | 0.322 | 0.432 |
| COc1ccc(-c2coc3cc(O)cc(O)c3c2=O)cc1 [Biochanin A] | 1.06 | 1.04 | 0.968 | 1.05 |
| O=S(=O)(NCCNC/C=C/c1ccc(Br)cc1)c1cccc2cnccc12 | 0.892 | 1.01 | 0.733 | 0.821 |
| NS(=O)(=O)NCCNc1nonc1/C(=N/O)Nc1ccc(F)c(Br)c1 | 0.886 | 0.972 | 0.788 | 0.722 |
| O[C@@H](COc1cccc2ncccc12)CN1CCN(C2c3ccccc3[C@@H]3[C@H](c4ccccc42)C3(F)F)CC1 (stereo not given in full) | 0.948 | 0.961 | 0.386 | 0.769 |
| O=CN1CC/C(=C/c2ccc3c(c2)OCO3)C1=O | 0.723 | 0.973 | 0.78 | 0.692 |
| O=C(NC1CCNCC1)c1n[nH]cc1NC(=O)c1c(Cl)cccc1Cl | 0.29 | 0.247 | 0.31 | 0.266 |
| CC(C)c1noc(N2CCC(COc3ccc(-c4ccc(S(C)(=O)=O)cc4)nc3)CC2)n1 | 1.06 | 1.08 | 0.932 | 1.07 |
| CC[C@H](Nc1ncnc2[nH]cnc12)c1nc2cccc(F)c2c(=O)n1-c1ccccc1 [CAL-101 (Idelalisib, GS-1101)] | 0.947 | 1.11 | 0.863 | 0.971 |
| CCCC(CCC)C(=O)O [Divalproex Sodium] | 0.974 | 1.13 | 0.957 | 1.1 |
| CCCC(CCC)C(=O)O [Valproic acid sodium salt (Sodium valproate)] | 1.03 | 1.08 | 0.897 | 1.15 |
